The source gives no read counts; variants with many changes may rest on few reads.
B1: OR4K15 (parent)
chain: GUUAACGGUCAUAGGCCAUGGAAACUAGGAGCACCAUUUCGCUGCCAGUGAAGAAAUGAACAAAGAAAAUCUGGGCCAGGCAGGCAUCAAAAGAAAUAGUCUUGCGCUCAACCAGAAAGUCUGUAAUCAUUUUAAGGGUA

Variants of: B1
Test: self-cleavage, relative activity (ratio to wild type); higher = more cleavage; in vitro, sequencing; the parent is a self-cleaving ribozyme

Row | Variant | self-cleavage
1 | GUUAACGGUCAUAGGCCAUGGAAACUAGGAGCUCCAUUUCGCUGCCAGUGAAGAAAUGAACAAAGAAAAUCUGGGCCUGGCAGGCAUCAAAAGAAAUAGUCCUGCGCUCAACCAGAAAGUCUGUAAUCAUUUUAAGGGUA [A33U A78U U102C] | 1.52
2 | GUUAACGGUCAUAGGCCAUGGAAACUAGGAGCUCCAUUUCGCUGCCAGUGAAGAAAUGAACAAAGAAAAUCUGGGCCAGGCAGGCAUCGAAAGAGAUAGUCUUGCGCUCAACCAGAAGGUCUGUAAUCAUUUUAAGGGUA [A33U A89G A95G A118G] | 1.95
3 | GUUAACGGUCAUAGGCCAUGGAAACUAGGAGCUCCAUUUCGCUGCCGGUGGAGAAAUGAACAAAGAAAAUCUGGGCCAGGCAGGCAUCAAAAGAAAUAGUCUUGCGCUCAACCAGAAAGUCUGUAAUCAUUUUAAGGGUA [A33U A47G A51G] | 0.78
4 | GUUAACGGUCAUAGGCCAUGGAAACUAGGAGCUCCGUUUCGCCGCCAGUGAAGAAAUGAACAAAGAAAAUCUGGGCCAGGCAGGCAUCAAAAGAAAUAGUCUUGCGCUCAACCAGAAAGUCUGUAAUCAUUUUAAGGGUA [A33U A36G U43C] | 1.87
5 | GUUAACGGUCAUAGGCCAUGGAAACUAGGAGCGCCAUUUCGCUGCCAGUGAAGAAAUGAACAAAGAAAAUCUGGGCCAGGCAGGCAUCAAAAGAAAUAGUCUUGCGCCCUACCAGAAAGUCUGUGAUCAUUUUAAGGGUA [A33G U108C A110U A125G] | 0
6 | GUUAACGGUCAUAGGCCAUGGAAACUAGGAGCUCCAUCUCGCUGCCAGUGAAGAAAUGAACAAAGAAAAGCUGGGCCAGGCAGGCUUCAAAAGAAAUAGUCUUGCGCUCAACCAGAAAGUCUGUAGUCACUUUAAGGGUA [A33U U38C U70G A86U A126G U130C] | 1.29
7 | GUUAACGGUCAUAGGCCAUGGAAACUAGGAGCUCCAUUUCGCUGCCAGCGAAGAAAUGAACAAAGAAAAUCUGGGCCAGGCAGGCAUCAAAAGAAAUAGUCUUGCGCUCAACCAGAGAGUCUGUAAUCAUUUUAAGGGUA [A33U U49C A117G] | 2.1
8 | GUUAACGGUCAUAGGCCAUGGAAACUAGGAGCUCCAUUUCGCUGCCAGUGAAGAAGUGAACAAAGAAAAUCUGGGCCAGGCAGGCAUCAAAAGAAAUAGUCUUGCGCUCAACCAGAAGGUCUGUAGUCAUUUUAAGGGUA [A33U A56G A118G A126G] | 0.35
9 | GUUAACGGUCAUAGGCCAUGGAAACUAGGAGCUCCAUUUCGCUGCCAGUGAAGAAAUGAACAAAGAAAAUCUGGGCCAGGCAGGCACCAAAAGAAAUAGUCUUGCGCUCAACCAGAAAGUCUGUAGUCAUUUUAAGGGUA [A33U U87C A126G] | 0.38
10 | GUUAACGGUCAUAGGCCAUGGAAACUAGGAGCUCCAUUUCGCUGCCAGUGAAGAAAUGUACAAAGAAAGUCUGGGACAGGCAGGCAUCAAAAGAAAUAGUCUUGCGCUCAACCAGAAAGUCUGUAAUCAUUUUAAGGGUA [A33U A59U A69G C76A] | 0.07
11 | GUUAACGGUCAUAGGCCAUGGAAACUAGGAGCGCCAUUUCGCUGCCAGUGAAGAAAUGAACAAAGAAAAUCUGGGCCAGGCAGGCACCAAAAGAAAUAGUCCUGCGCUCAACCAGAAAGUCUGUAAUCAUUUUAAGGGUA [A33G U87C U102C] | 0.9
12 | GUUAACGGUCAUAGGCCAUGGAAACUAGGAGCUCCAUUUCGCUGCCAGUGAAGAAAUGAACAAAGAAAAUCUGGGCCUGGCAGGCAUCAAAAGAAGUAGUCUUGCGCUCAACCAGAAAGUCUGUAGUCAUUUUAAGGGUA [A33U A78U A96G A126G] | 0.21
13 | GUUAACGGUCAUAGGCCAUGGAAACUAGGAGCGCCAUUUCGCUGCCAGUGAAGAAAUGAACAAAGAAAAUCUGGGCCAGGCAGGCAUCAAAAGAAAUAGUCUUGCGCACAACCAGAAAGUCCGUAAUCAUUUUAAGGGUA [A33G U108A U122C] | 0.01
14 | GUUAACGGUCAUAGGCCAUGGAAACUAGGAGCUCCAUUCCGCUGCCAGUGCAGAAAUGAACAAAGAAAGUGUGGGCCAGGCAGGCAUCAAAAGAAAUAGUCUUGCGCUCAACCAGAAAGUCUGUAAUCAUUUUAAGGGUA [A33U U39C A51C A69G C71G] | 0.25
15 | GUUAACGGUCAUAGGCCAUGGAAACUAGGAGCUCCAUUUCGCUGCCAGUGAAGAAAUGAACGAAGAAAAUCUGGGCCAGGCAGGCAUCAAAAGAAAUAGUCUUGCGCUCAACCAGAAAGUCUGUAACCAUUUUAAGGGUA [A33U A62G U127C] | 0.21
16 | GUUAACGGUCAUAGGCCAUGGAAACUAGGAGCUCCAUUUCGCUGCCAGUGAAGAAAUGAGCAAAGAAAAUCUGGGCCAGGCAGGCAUCAAAAGAAAUAGUCUUGCGCUCAACCUGAAAGUCUGUAAUCAUUUUAAGGGUA [A33U A60G A114U] | 0.07
17 | GUUAACGGUCAUAGGCCAUGGAAACUAGGAGCUCCAUUUCGCUGCCAGUGAAGAAGUGAGCAAAGAAAGUCUGGGCCAGGCAGGCAUCAAAAGAAAUAGUCUUGCGCUCAACCAGAAAGUCUGUAAUCAUUUUAAGGGUA [A33U A56G A60G A69G] | 0.29
18 | GUUAACGGUCAUAGGCCAUGGAAACUAGGAGCUCCACUUCGCUGCCAGUGAAGAAAUGAACAAAGAAAAUCUGGGCCAGGCGGGCAUCUAAAGAAAUAGCCUUGCGCUCAACCAGUAAGUCUGUAAUCAUUUUAAGGGUA [A33U U37C A82G A89U U100C A116U] | 0.15
19 | GUUAACGGUCAUAGGCCAUGGAAACUAGGAGCUCCAUUUCGCUGCCAGUGAAGAAAUGACCUAAGAAAAUCUGGGCCAGGCAGGCAUCAAAAGAAAUAGUCUUGCGCUCAACCAGAAAGUCUGUAAUCAUUUUAAGGGUA [A33U A60C A62U] | 2.03
20 | GUUAACGGUCAUAGGCCAUGGAAACUAGGAGCUCCAUUUCGCUGCCAGCGAAGAAAUGAACAAAGAAAAUCUGGGCCAGGCAGGCAUCAAAAGAAAUAGUCUUGCGCUCAACCAGAAAGUCUGUAAUCAUUAUAAGGGUA [A33U U49C U132A] | 2.09
21 | GUUAACGGUCAUAGGCCAUGGAAACUAGGAGCUCCAUUUCGCUGCCAGUGAAGAAAUGAACAAAGAAAAUCUGGGCCAGGCAGGCAUCAAAGGAAAUAGUCUUGCGCUCAACCAGAAUGUCUGUAAUCAUUUUAAGGGUA [A33U A92G A118U] | 0.72

Row | Variant | self-cleavage
22 | GUUAACGGUCAUAGGCCAUGGAAACUAGGAGCUCCAUUUCGCGGCCAGUGAAGAAAUGAACAAAGAAAGUCUGGGCCAGGCAGGCAUCAAAAGAAAUAGUCUUGCGCUCAACCAGAAAGUCUGUAAUCAUUUUAAGGGUA [A33U U43G A69G] | 1.45
23 | GUUAACGGUCAUAGGCCAUGGAAACUAGGAGCUCCAUUUCGCUGCCAGUGAAGAAAUGAACAAAGAAAAUCUGGGCCAGGCAGGCAUCAGAAGAAAUAGUCUUGCGCUCAACCAGAAAGCCUGUAAUCAUUUUAAGGGUA [A33U A90G U120C] | 1.11
24 | GUUAACGGUCAUAGGCCAUGGAAACUAGGAGCUCCAUUUCGCUGCCAGUGAAGAAAUGAACAAGGAAAAUCUGGGCCAGGCAGGCAUCAAAAGAAAUAGUCUUGCGCUCAACCAGAAAGUCUGUAAUCACUUUAAGGGUA [A33U A64G U130C] | 1.33
25 | GUUAACGGUCAUAGGCCAUGGAAACUAGGAGCUCCAUUUCGCUGCCAGUGAAGAAAUGAACAAAGAGAAUCUGGGCCAGGCGGGCAUCAAAAGAAAUAGUCUUGCGCUCAACCAGAAAGUCUGUAAUCAUUUUAAGGGUA [A33U A67G A82G] | 0.57
26 | GUUAACGGUCAUAGGCCAUGGAAACUAGGAGCUCCAUCCCGCUGCCAGUGAAGAAAUGAACAGGGAAAAUCUGUGCCUGGCAGGCAUCAAAAGGAAUAGUCUUGCGCUCAACCAGAAAGUCUGUAAUCAUUAUAAGGGUA [A33U U38C U39C A63G A64G G74U A78U A94G U132A] | 0.2
27 | GUUAACGGUCAUAGGCCAUGGAAACUAGGAGCUCCAUUUCGCUGCCAGUGAAGAAAUGAACAAAGAUAAUCUGGGCCAGGCAGGCAUCAAAAGAAGUAGUCUUGCGCUCAACCAGAAAGUCUGUAAUCAUUUUAAGGGUA [A33U A67U A96G] | 2.31
28 | GUUAACGGUCAUAGGCCAUGGAAACUAGGAGCUCCAUUUCGCUGCCAGUGAAGAAAUGAACAAAGAAGAUCUGGGCCAGGCAGGCAUCAAAAGAAAUAGUCUAGCGCUCAACCAGAAAGUCUGUAAUCAUUUUAAGGGUA [A33U A68G U103A] | 1.59
29 | GUUAACGGUCAUAGGCCAUGGAAACUAGGAGCUACAUUUCGCUGCCAGUGAAGAAAUGAACAAAGAAAAUCUGGGCCAGGCAGGCAUCAAAAGAAAUAGUCUCGCGCCCAACCAGAAAGUCUGUAAUCAUUUUAAGGGCA [A33U C34A U103C U108C U139C] | 0.01
30 | GUUAACGGUCAUAGGCCAUGGAAACUAGGAGCUCCAUUUCGCUGCCAGUGAUGAAAUGGACAAAGAAGAUCUGGGCCAGGCAGGCACCAAAAGAAGUAGUCUUGCGCUCAACCAGAAAGUCUGUAAUCAUUUUAAGGGUA [A33U A52U A59G A68G U87C A96G] | 2.04
31 | GUUAACGGUCAUAGGCCAUGGAAACUAGGAGCUCCAUUUCGCUGCCAGUGAAGAAAUGAACAAAGAAAAUCUGGGCCAGGCAGGCAUCAAAAGAAAUAGUCUUGCGCUCUACCAGAGAGUCUGUAAUCAUUUUAAGGGUA [A33U A110U A117G] | 1.34
32 | GUUAACGGUCAUAGGCCAUGGAAACUAGGAGCUCCAUUCCGCUGCCAGUGAAGAAAUGAACAAAGAAAAUCUGGGCCGGGCAGGCAUCAAAAGAAAUAGUCUUGCGCCCAACCAGAAAGUCUGUAAUCAUUUUAAGGGUA [A33U U39C A78G U108C] | 0
33 | GUUAACGGUCAUAGGCCAUGGAAACUAGGAGCUCCAUUUCGCUGCCAGUGAAGAAAUGAACAAAGAAGAUCUGGGCCAGGCAGGCAUCAAAAGAAAUAGUCUUGCGCUCAACCAGAAAGUCUGUAAUCAUCUUAAGGGUA [A33U A68G U131C] | 0.89
34 | GUUAACGGUCAUAGGCCAUGGAAACUAGGAGCUCCAUUUCGCUGCCAGUGAAGAAAUGAGCAAAGAAAAUCUGGGCCAGGCAGGCAUCAAAAGAAAUAGUCUUGCGCUCAACCAGAAAGUCUGUAAUCAUUCUAAGGGUA [A33U A60G U132C] | 0.8
35 | GUUAACGGUCAUAGGCCAUGGAAACUAGGAGCUCCAUUUCGCUGCCAGUGAAGAAAUGAACAAAGAAAAUCUGGGCCAGGCAGGCAUCAAAAGUAACAGUCUUGCGCUCAACCAGAAAGUCUGUAACCAUUUUAAGGGUA [A33U A94U U97C U127C] | 0.54
36 | GUUAACGGUCAUAGGCCAUGGAAACUAGGAGCAACAUCUCGCUGCCAGUGAAGAAAUGAACAAAGAAAAUCUGGGCCAGGCAGGCGUCAAAAGGAAUAGUCUUGCGCUCAACCAGAAAGUCUGUAAUCAUUAUAAGGGUA [C34A U38C A86G A94G U132A] | 1.66
37 | GUUAACGGUCAUAGGCCAUGGAAACUAGGAGCUCCAUUUCGCUGCCAGUGAGGAAAAGAACAGAGAAAAUCUGGGCCAGGCAGGCAUCAAAAGAAAUAGUCUUGCGCUCAACCAGAAAGUCUGUAAUCAUUUUAAGGGUA [A33U A52G U57A A63G] | 1.52
38 | GUUAACGGUCAUAGGCCAUGGAAACUAGGAGCUCCAUUUCGCUGCCAGUGAAGAGAUGAACAAAGAAAAUCUGGGCCAGGCAGGCAUCAAAAGAAAUAGUCUUGCGCUCAACCAGAAAGUCUGUAAUCAUUUUAGGGGUA [A33U A55G A135G] | 0.96
39 | GUUAACGGUCAUAGGCCAUGGAAACUAGGAGCUCCAUUUCGCAGCCAGUGAAGAAAUGAGCAAAGAAAAUCUGGGCCAGGCAGGCAUCAAAAGAAAUAGUCUUGCGCUCAACCAGAAAGUCUGUAAUCAUUUUAAGGGUA [A33U U43A A60G] | 1.73
40 | GUUAACGGUCAUAGGCCAUGGAAACUAGGAGCGCCAUUUCGCUGCCAGUGAAGAAAUGAACAAAGAAAAUCUGGGCCAGGCAGGCAUCAAAAGAAAUAGUCAUGCGCUCAACCAGAAAGUCCGUAAUCAUUUUAAGGGUA [A33G U102A U122C] | 0.32
41 | GUUAACGGUCAUAGGCCAUGGAAACUAGGAGCUCCAGUUCGCUGCCAGUGAAGAAAAGAACAAAGAAAAUCUGGGCCAGGCAGGCAUCAAAAGAAAUAGUCUUGCGCUCAACCGGAAAGUCUGUAAUCAUUUUAAGGGUA [A33U U37G U57A A114G] | 0.23
